# Test results as given in paper PMC4336329 (PLoS ONE, 2015).
# In all, about 310,000 compounds went through this assay and about 14,000 (4.5%) showed an effect of 50% or more. Effects have a minus sign here. The list shows a part of the results.
# Biological target: human ether-à-go-go-related gene (hERG) potassium channel (human, UniProt Q12809)
# Assay: primary screen, population patch clamp on CHO cells stably expressing hERG
# 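Further: peak tail current of the secondary pulse compared with the same well before compound.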
# human ether-à-go-go-related gene (hERG) potassium channel, sequence (Q12809 whole entry, looked up): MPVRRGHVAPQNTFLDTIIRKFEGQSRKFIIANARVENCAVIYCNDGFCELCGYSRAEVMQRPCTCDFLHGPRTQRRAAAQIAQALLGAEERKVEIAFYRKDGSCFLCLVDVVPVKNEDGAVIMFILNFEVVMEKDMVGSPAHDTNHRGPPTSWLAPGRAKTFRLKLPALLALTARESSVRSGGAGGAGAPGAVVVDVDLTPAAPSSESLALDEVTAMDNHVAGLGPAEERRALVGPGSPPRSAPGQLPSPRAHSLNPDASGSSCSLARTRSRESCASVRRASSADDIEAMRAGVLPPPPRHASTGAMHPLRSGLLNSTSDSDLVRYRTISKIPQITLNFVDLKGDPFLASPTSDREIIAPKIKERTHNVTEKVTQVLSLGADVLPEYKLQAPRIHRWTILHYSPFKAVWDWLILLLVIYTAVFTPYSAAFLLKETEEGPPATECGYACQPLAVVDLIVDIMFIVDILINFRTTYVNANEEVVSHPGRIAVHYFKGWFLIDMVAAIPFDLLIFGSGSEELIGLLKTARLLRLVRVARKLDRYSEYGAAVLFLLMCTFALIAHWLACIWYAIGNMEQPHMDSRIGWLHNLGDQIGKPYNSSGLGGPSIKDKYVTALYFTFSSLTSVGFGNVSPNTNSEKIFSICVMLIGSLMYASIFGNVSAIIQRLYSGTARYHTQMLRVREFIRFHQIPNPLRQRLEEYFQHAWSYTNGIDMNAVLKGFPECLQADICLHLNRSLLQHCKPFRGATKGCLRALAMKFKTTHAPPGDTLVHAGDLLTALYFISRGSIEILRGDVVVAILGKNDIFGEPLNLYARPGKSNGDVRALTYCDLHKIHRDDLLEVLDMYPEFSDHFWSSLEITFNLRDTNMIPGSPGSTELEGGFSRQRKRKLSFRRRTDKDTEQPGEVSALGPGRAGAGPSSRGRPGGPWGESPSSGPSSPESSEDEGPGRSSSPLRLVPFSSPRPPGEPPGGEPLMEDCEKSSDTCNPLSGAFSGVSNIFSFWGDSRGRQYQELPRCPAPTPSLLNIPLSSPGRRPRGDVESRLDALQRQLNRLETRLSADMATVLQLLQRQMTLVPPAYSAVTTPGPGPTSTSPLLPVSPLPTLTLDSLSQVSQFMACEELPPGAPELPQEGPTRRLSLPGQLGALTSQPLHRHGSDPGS
row,SMILES,"hERG current change (%, negative = inhibition) at 10uM [%]"
1,COc1cc([N+](=O)[O-])cc(/C=N/NC(=O)Cn2nccc2C)c1O,4.45
2,CC12CCC(c3c(C(=O)N4CCOCC4)nn(-c4ccccc4)c31)C2(C)C (centres unmarked),-18.3
3,Cc1sc(NC(=O)C2=COCCO2)c(C#N)c1C,12.1
4,CCC(C(=O)OC)n1cnc2scc(-c3ccc(C)c(C)c3)c2c1=O (centres unmarked),6.51
5,Cl.Oc1cc2c(cc1O)C(c1ccccc1)CNCC2 (centres unmarked),-3.82
6,COc1ccc(CCC(=O)OCC(=O)Nc2c(C)nn(-c3ccccc3)c2C)cc1,-14.2
7,CCS(=O)(=O)N1N=C(c2cccc(NS(C)(=O)=O)c2)CC1c1cccs1 (centres unmarked),-34.3
8,CCn1c(SCC(=O)Nc2nc(C)cs2)nnc1-c1ccoc1C,-1.96
9,O=C(NC(=S)NC1CCCc2ccccc21)c1ccco1 (centres unmarked),10.5
10,N#CC1=C(SCc2ccccc2Cl)NC(=O)C(C(N)=O)C1 (centres unmarked),7.57
11,CCOC(=O)C1(CCCc2ccccc2)CCN(C(=O)c2cc(C)nc(C)n2)CC1,-16.4
12,CN(C)S(=O)(=O)c1ccc(C(=O)OCCc2ccccc2)cc1,15
13,CCCCNC(=O)c1onc(CSc2ccccc2)c1C(=O)NCCCC,-5.73
14,Cc1ccc(Oc2ncnc3sccc23)cc1,-5.48
15,CCOC(=O)CSc1ncnc2c1cnn2-c1ccc(C)cc1C,-19.2
16,Cc1ccc(NC(=O)CNC(=O)c2ccc(C)s2)nc1,-5.98
17,Cc1ccn2c(NC3CCCC3)c(-c3ccncc3)nc2c1,-10.2
18,O=C(Cc1ccc(Cl)c(Cl)c1)Nc1ccc(S(=O)(=O)Nc2ncccn2)cc1,17.8
19,COC(C/C=C/[C@H](O)[C@@H](C)OCc1ccccc1)OC,17.2
20,CC(=O)Nc1ccc(-c2csc(NC(=O)C3CSC4(C)CCC(=O)N34)n2)cc1 (centres unmarked),9.04
21,CN(C)c1ccc(S(=O)(=O)N2CCCCC2)cc1NC(=O)CN1C(=O)NC(C)(c2ccccc2)C1=O (centres unmarked),-3.86
22,Cc1ccc(C(=O)n2c(-c3ccccc3)cnc2SCC(=O)Nc2ccccc2)cc1,15.6
23,O=c1[nH]c(CN2CCc3ccccc3C2)nc2ccccc12,5.47

row,SMILES,"hERG current change (%, negative = inhibition) at 10uM [%]"
1,Cc1ccccc1N=C1NC(=O)/C(=C/c2cccn2C)S1,7.25
2,CC(C)n1ncc2c(C(=O)N3CCN(Cc4ccc(Br)s4)CC3)cc(C3CC3)nc21,-4.36
3,COc1ccccc1NC(=S)NC(=O)c1ccc(Cn2cc(Br)cn2)cc1,1.12
4,O=C(Cc1nc2ccccc2[nH]c1=O)c1ccc(Cl)cc1,7.6
5,CC1(C)Cc2c(c(N3CCOCC3)nc3sc(C(=O)Nc4ccc(Cl)cc4)c(N)c23)CO1,12
6,O=C(Nc1cccc(-c2cccc(Cl)c2)c1)C1CCN(Cc2ccc(CO)o2)CC1,-68
7,Clc1cccc(N2CCN(Cc3nnc(-c4ccccc4)o3)CC2)c1,-25.5
8,COc1cc(OC)c(OC)cc1CN1CCCC(C(=O)c2ccc3c(c2)OCO3)C1 (centres unmarked),-67.1
9,CSc1cccc(CN2CCC(Oc3ccc(C(=O)N4CCCCC4)cc3)CC2)c1,-25.2
10,CCn1c(N)c(Br)c(=O)[nH]c1=O,25
11,COc1cccc(COc2cc3ccccc3nc2C)c1,7.99
12,CC/C(=N\NC(=O)c1ccc(-c2ccccc2)cc1)C12CC3CC(CC(C3)C1)C2,0.121
13,O=C(NCCc1ccccc1)c1ccc2c(c1)S(=O)(=O)c1ccccc1C2=O,-2.55
14,O=C(CSc1nc2ccccc2[nH]1)Nc1cccc(S(=O)(=O)N2CCOCC2)c1,-16.9
15,COc1ccc(CCNC(=O)c2ccc3ccccc3n2)cc1,-5.65
16,Cc1cc(NC(=O)CCN2CCC(C(N)=O)CC2)ccc1Br,-26.7
17,COC(=O)[C@@]1(Cc2ccc(OC)cc2)[C@H]2c3cc(C(=O)N4CCCC4)n(CCSCCO)c3C[C@H]2CN1C(=O)c1ccccc1,-17.6
18,O=C(CSc1nc(-c2ccccc2F)nc2nc[nH]c12)Nc1c(Cl)cc(Cl)cc1Cl,-6.09
19,COC(=O)C(C)N(C#N)c1nc(NC(C)C)nc(SC)n1 (centres unmarked),-5.75
20,Cc1cc(C(F)(F)F)nn1Cc1n[nH]c(=S)n1-c1ccc(Cl)cc1,20.3
21,CC(Sc1ccc2ccccc2c1)C(=O)NC(N)=O (centres unmarked),11.7
22,Cc1ccc2c(c1)N(CCC(=O)NCc1ccco1)C(=O)CO2,-14
23,CC(C)(C)NC(=O)c1cnn2c1NC(c1ccc(F)cc1)CC2C(F)(F)F (centres unmarked),2.13

row,SMILES,"hERG current change (%, negative = inhibition) at 10uM [%]"
1,N#C/C(=C/c1ccc(N2CCCCCC2)o1)c1ccc(F)cc1,13.9
2,CC(NS(=O)(=O)c1ccc(Br)cc1)C(=O)NCc1ccco1 (centres unmarked),1.98
3,COc1ccc(NC(=O)[C@H](CCS(C)(=O)=O)N2Cc3ccccc3C2=O)c(OC)c1,1.71
4,CCC(Sc1ccc2nnc(-c3ccc(OC)c(OC)c3)n2n1)C(=O)O (centres unmarked),-0.394
5,O=C(CN1CC(c2ccccc2)CC1=O)OCc1ccccc1F (centres unmarked),-21.1
6,COc1ccccc1N1CCN(S(=O)(=O)c2cn(C)cn2)CC1,17.3
7,Cc1ccc(-n2nc(C(=O)O)cc2-c2ccccc2Cl)cc1,27.1
8,CC(C)(C)N=C1NN=C(c2cc3ccccc3o2)CS1,-9.99
9,CCc1noc(C)c1C(=O)N1CCCC(CCC(=O)NCc2cccc(OC)c2)C1 (centres unmarked),20.2
10,O=C(NCc1ccccc1F)c1cccc(S(=O)(=O)N2CCCCCC2)c1,7.87
11,Cc1ccc(-c2cc(C#N)c(=O)n(Cc3c(Cl)cccc3Cl)c2)cc1,-3.19
12,Cc1cccc(N2C(=O)CCC2=O)n1,-5.33
13,O=C(Nc1ccc(S(=O)(=O)N2CCN(Cc3ccccc3)CC2)cc1)c1cnccn1,-36.5
14,C=CCn1c(CCNC(=O)c2ccc(Cl)c(Cl)c2)nnc1SCCOc1ccc(OC)cc1,-9.24
15,COc1ccc(OCc2nnc3n2N=C(c2ccccc2)C(CC(=O)O)S3)cc1 (centres unmarked),15.2
16,CCOC(=O)N1CCN(S(=O)(=O)c2ccc3c(c2)SC(C)C(=O)N3)CC1 (centres unmarked),1.85
17,COc1ccc(CC(=O)NCc2nnc(SCc3ccc(C)cc3)n2C)cc1,5.49
18,CCN(CC(=O)NCCc1ccccc1)S(=O)(=O)c1ccc(C)cc1,-43.2
19,Clc1ccc(-c2cn3c(n2)CCC3)cc1,-11.5
20,Cc1ccc(CN2CCN(Cc3cnc(C)s3)CC2CCO)o1 (centres unmarked),-1.95
21,Cc1ccc(S(=O)(=O)C2(C(=O)NC3CCCCC3)CC2)cc1,-0.446
22,CCCc1[nH]nc2c1C(c1cc(OC)ccc1F)C(C#N)=C(N)O2 (centres unmarked),-15.5
23,O=[N+]([O-])c1ccc(N2CCN(C(=S)Nc3ccc(F)cc3F)CC2)cc1,-18.5

row,SMILES,"hERG current change (%, negative = inhibition) at 10uM [%]"
1,CCN(CC)S(=O)(=O)c1ccc(/C=C/C(=O)OCC(=O)N(C)C)cc1,6.75
2,COCCn1c(SCc2ccc(C(=O)OC)o2)nnc1-c1c[nH]c2ccccc12,-8.93
3,CCCNC(=O)C(Cc1ccc(OC)cc1)NC(=O)c1ccc(C#N)cc1 (centres unmarked),-50.7
4,Cc1ccc(-c2csc3nc(CN(C)Cc4ccccc4)[nH]c(=O)c23)cc1,30.4
5,O=C(NCc1ccco1)c1cc2ccccc2o1,11.8
6,O=C(COC(=O)c1ccc(Cl)c(S(=O)(=O)N2CCCCC2)c1)NCc1ccco1,-42.2
7,CC(C)c1ccc(C(=O)NNC(=O)c2n[nH]c(=O)c3ccccc23)cc1,-6.49
8,Cc1ccc(NC(=O)N2CCCC2C(=O)Nc2ccc3c(c2)OCCO3)cc1 (centres unmarked),4.33
9,CNC(=O)c1[nH]cnc1C(=O)Nc1ccc(OC)cc1,20.8
10,COc1ccccc1C1=NCc2nnc(C)n2-c2ccc(Cl)cc21,3.01
11,CCN(CC)CCN1C(=O)c2ccccc2NC1c1cccc(F)c1 (centres unmarked),-68.2
12,COc1ccc(-n2c(/C=C/c3ccc4c(c3)OCO4)nc3ccccc3c2=O)cc1,-55.3
13,CCN1C(=O)/C(=C/c2cccs2)SC1=Nc1ccc(OC)cc1,0.839
14,COCc1cc(C)nc2sc3c(=O)n(-c4cccc5ccccc45)nnc3c12,12.7
15,CC1CN(C(=O)CCC(=O)N2CCN(c3ccccn3)CC2)c2ccccc2O1 (centres unmarked),-7.9
16,Cc1cc(=O)oc2cc(OCC(=O)NC3CCCC3)ccc12,-67.2
17,C=CCNC(=S)/N=c1/scc(C)n1C,-3.67
18,CC(C)(C)C(=O)Nc1nnc(CC(=O)NCc2ccccc2)s1,2.83
19,COc1cccc(OC)c1OCCN1CCCC1,15.8
20,Cc1cc2nc(Sc3c([N+](=O)[O-])nc(C)n3Cc3ccccc3)[nH]c2cc1C,-11.4
